Measurements reported in PubChem BioAssay AID2675 (National Center for Advancing Translational Sciences (NCATS), 2010).
Hit rate of the full screen: of about 280,000 compounds, about 100 (0.036%) were called active. The inconclusive results got no clear call from the source; some entries with a clear call stand among them for comparison. Calls come from the whole dose curve; as a rule, active = well fitted inhibition curve with a large enough effect in the signal ratio, with a control signal flat (not every such curve was filed as active); inconclusive = small, poorly fitted or top-dose-only effect, or effect the other way, or a change in a side signal; inactive = no such curve, though single readings can be large or run the other way; the % refers to the signal ratio. A potency beside an inconclusive call is a rough fit, not a confirmed value. A note “side channel” means that the fit belongs to a control or component signal, not to the main read-out.

Biological target: Muscleblind-like protein 1 (Homo sapiens) (UniProt Q9NR56)
Assay: qHTS Assay for Inhibitors of MBNL1-poly(CUG) RNA binding
Details: TR-FRET MBNL1-His/biotin-(CUG)12 binding, 665/545 ratio; series mostly up to 57.5 µM
How it was run: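 Compounds (final 92 nM to 58 uM) are added to His-tagged MBNL1 and biotin-(CUG)12, then terbium anti-His antibody and streptavidin-XL665 (5 nM final). After 60 min at room temperature, the 665/545 nm ratio is read.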
Potency is the fitted concentration of half-maximal effect; tags give direction and shape of the fitted curve or compound fluorescence and quenching.

Chain of UniProt Q9NR56 (Q9NR56 whole entry, looked up): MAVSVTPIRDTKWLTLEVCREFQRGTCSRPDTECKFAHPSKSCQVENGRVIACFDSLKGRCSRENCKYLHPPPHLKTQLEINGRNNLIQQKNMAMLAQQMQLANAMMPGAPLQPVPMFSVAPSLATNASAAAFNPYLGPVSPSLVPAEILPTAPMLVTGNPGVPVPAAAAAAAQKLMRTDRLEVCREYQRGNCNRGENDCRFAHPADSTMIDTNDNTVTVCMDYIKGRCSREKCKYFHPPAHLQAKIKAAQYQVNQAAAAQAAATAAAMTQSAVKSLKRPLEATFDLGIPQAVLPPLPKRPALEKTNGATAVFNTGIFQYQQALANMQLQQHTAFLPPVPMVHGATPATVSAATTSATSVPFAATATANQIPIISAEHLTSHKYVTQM

Q: Which Potency does the source give for `CCn1c(C)nc2cc(C(=O)NNC(=S)NC(=O)c3ccccc3)ccc21` here?
A: inconclusive: 20 µM [quencher, side channel, partial curve, poor fit]

Q: For `Cc1ccc(Sc2ccc([N+](=O)[O-])cc2[N+](=O)[O-])nc1`, which Potency is on record?
A: inconclusive: 15.8 µM [quencher, side channel, partial curve]

Q: How did the Potency turn out when `CC(C)[C@H](NC(=O)OC(C)(C)C)C(=O)N/N=C/c1ccc2nccnc2c1` was run?
A: inconclusive: 25.1 µM [quencher, side channel, partial curve]

Q: Which Potency does the source give for `CCC(C)(C)n1nnnc1C(c1cc2ccc(OC)cc2[nH]c1=O)N1CCc2ccccc21` (stereo not drawn) here?
A: inconclusive: 35.5 µM [quencher, side channel, single point]

Q: With `CC(C)(C)C(=O)N1CCN(c2ccc([N+](=O)[O-])cc2-n2cccc2)CC1` as the compound, how does the Potency read?
A: inconclusive: 28.2 µM [quencher, side channel, single point]

Q: For `COc1cc(/C=C/C(=O)OCC(=O)Nc2c(C)n(C)n(-c3ccccc3)c2=O)ccc1OCC#N`, which Potency is on record?
A: inconclusive: 28.2 µM [quencher, single point]

Q: Which Potency does the source give for `Cc1cc(-c2c(C)[nH]n(-c3ccc(Cl)cc3)c2=O)n[nH]1` here?
A: inactive

Q: How did the Potency turn out when `CCc1ccccc1N(C(=O)c1snc(C(N)=O)c1N)C(C(=O)NCC1CCCO1)c1c[nH]c2ccccc12` (stereo not drawn) was run?
A: inconclusive: 100 µM [inhibitor, single point]

Q: `CC1(C)C=C(c2ccc(C=O)s2)CC(C)(C)N1` was tested. Which Potency did it give?
A: inconclusive: 25.1 µM [quencher, single point]

Q: For `CCN1C(=O)/C(=C/C=C2/Sc3ccccc3N2CCO)SC1=S`, which Potency is on record?
A: inconclusive: 1 µM [quencher, side channel, full curve]

Q: Which Potency does the source give for `O=C1Nc2cc(C(=O)NCCCN3CCCC3)ccc2S/C1=C/c1ccccc1F` here?
A: inconclusive: 15.8 µM [quencher, partial curve, poor fit]

Q: `COc1ccccc1NC(=S)NC1CCCCC1` was tested. Which Potency did it give?
A: inactive

Q: How did the Potency turn out when `S=c1nc[nH]c2c1[nH]c1ccccc12` was run?
A: inconclusive: 17.8 µM [fluorescent, side channel, partial curve]

Q: For `COc1ccc(-c2nc(CSCC(=O)N3CCN(C)CC3)c(C)o2)cc1OC`, which Potency is on record?
A: inconclusive: 7.94 µM [fluorescent, side channel, single point]

Q: With `O=C(NC1CCN(Cc2ccc(Cl)cc2Cl)CC1)c1ccccc1` as the compound, how does the Potency read?
A: inactive

Q: How did the Potency turn out when `CC(=O)NC(C)c1nc2ccccc2n1Cc1ccccc1F` (stereo not drawn) was run?
A: inconclusive: 8.91 µM [fluorescent, side channel, single point]

Q: With `[O-][n+]1c2c(c3c4non(O)c4ccc31)CCCC2` as the compound, how does the Potency read?
A: inconclusive: 31.6 µM [quencher, side channel, single point]

Q: With `C=CCOc1c(Cl)cc(CNc2ccc(N(C)C)cc2)cc1OC` as the compound, how does the Potency read?
A: inconclusive: 12.6 µM [quencher, partial curve, poor fit]

Q: With `CCOc1cc(-c2cc(-c3ccccc3)nc(N)c2C#N)ccc1O` as the compound, how does the Potency read?
A: inactive

Q: Which Potency does the source give for `CC1=C(C(=O)NCCCOC(C)C)C2(CCC(C)CC2)OC1=O` (stereo not drawn) here?
A: inconclusive: 0.891 µM [quencher, side channel, full curve, poor fit]

Q: For `CC(C)Oc1ccc(N2C(=O)c3ccccc3C2=O)cc1`, which Potency is on record?
A: inconclusive: 3.16 µM [quencher, side channel, full curve]

Q: `COc1ccc(/C=N/Nc2cn[nH]c(=O)c2Cl)cc1` was tested. Which Potency did it give?
A: inconclusive: 17.8 µM [quencher, side channel, partial curve]

Q: For `CC(C)C(OC(=O)c1cccs1)C(=O)NCc1cccs1` (stereo not drawn), which Potency is on record?
A: inactive

Q: `COc1cc(/C=C/C(=O)OCC(=O)Nc2c(C)n(C)n(-c3ccccc3)c2=O)ccc1O` was tested. Which Potency did it give?
A: inconclusive: 28.2 µM [quencher, side channel, partial curve]

Q: For `Cc1ccc(C(C(=O)NC2CCCC2)N(Cc2cccnc2)C(=O)c2snc(C(N)=O)c2N)o1` (stereo not drawn), which Potency is on record?
A: inconclusive: 11.2 µM [quencher, side channel, partial curve]

Q: Which Potency does the source give for `COc1ccccc1/C=C/C(=O)Nc1cccnc1` here?
A: inconclusive: 31.6 µM [quencher, side channel, partial curve]

Q: `CSCC[C@H](NC(=O)OC(C)(C)C)C(=O)N/N=C/c1cccc2nccnc12` was tested. Which Potency did it give?
A: inconclusive: 28.2 µM [quencher, side channel, partial curve]

Q: With `CN1CCN(C(=O)CSc2nc(-c3cccs3)cc(-c3cccs3)c2C#N)CC1` as the compound, how does the Potency read?
A: inconclusive: 14.1 µM [quencher, side channel, partial curve]

Q: Which Potency does the source give for `Cc1cc(/C=C2/C(=O)N(C)C(=S)N2C)ccc1N1CCCC1` here?
A: inconclusive: 25.1 µM [quencher, side channel, partial curve]

Q: How did the Potency turn out when `CC(=O)Nc1cccc(NS(=O)(=O)c2ccccc2[N+](=O)[O-])c1` was run?
A: inconclusive: 20 µM [quencher, side channel, partial curve]

Q: With `Cc1c(C(=O)N2CCCCC2)nn(-c2ccc(Cl)cc2)c(=O)c1C#N` as the compound, how does the Potency read?
A: inconclusive: 15.8 µM [quencher, side channel, partial curve]

Q: `COc1ccc(NC(=O)N2CCC(c3ccccc3)C2)c(OC)c1` (stereo not drawn) was tested. Which Potency did it give?
A: inactive

Q: With `Nc1cc(C(=O)O)ccc1Nc1ccccc1` as the compound, how does the Potency read?
A: inactive

Q: With `O=C(N/N=C/c1ccco1)c1cc(-c2ccncc2)nc2ccccc12` as the compound, how does the Potency read?
A: inconclusive: 14.1 µM [quencher, side channel, partial curve]

Q: For `CCC(CC)NC(=O)COC(=O)c1ccc2c(c1)C(=O)N(Cc1ccco1)C2=O`, which Potency is on record?
A: inconclusive: 5.01 µM [quencher, side channel, full curve]

Q: Which Potency does the source give for `CCCCCCCCC[n+]1cccc2c3ccccc3ccc21` here?
A: inconclusive: 14.1 µM [quencher, side channel, partial curve]

Q: For `O=C(NC(=S)Nc1ccc(F)cc1)C1CCCCC1`, which Potency is on record?
A: inactive

Q: Which Potency does the source give for `Cn1ncc(Cl)c1C(=O)N/N=C/c1cc2c(cc1[N+](=O)[O-])OCO2` here?
A: inconclusive: 3.55 µM [quencher, side channel, partial curve]

Q: Which Potency does the source give for `Cn1c(=O)n(C)c2cc([N+](=O)[O-])c(N3CCN(S(=O)(=O)c4ccccc4)CC3)cc21` here?
A: inconclusive: 5.62 µM [activator, partial curve]

Q: With `Cc1cc(C)nc(N/N=C/c2ccccc2OCc2ccc(Br)cc2)n1` as the compound, how does the Potency read?
A: inactive

Q: How did the Potency turn out when `O=C(/C=C/c1ccccc1Cl)Nc1ccccc1` was run?
A: inactive

Q: How did the Potency turn out when `CCOc1ccc(C(C)=O)cc1N1C(=O)C2C3C=CC(C3)C2C1=O` (stereo not drawn) was run?
A: inactive

Q: For `Cc1ccc(C(=O)Nc2ccc3c(c2)C(=O)N(C)C3=O)c(C)c1`, which Potency is on record?
A: inactive

Q: How did the Potency turn out when `COc1ccc2[nH]c(=O)c(CNc3ccccc3OC)cc2c1` was run?
A: inconclusive: 14.1 µM [quencher, side channel, partial curve]

Q: For `C=CCNC(=S)NNC(=O)c1cccnc1`, which Potency is on record?
A: inactive

Q: Which Potency does the source give for `Cc1nnc(N2C(=O)C(O)=C(C(=O)c3ccco3)C2c2cccc3ccccc23)s1` (stereo not drawn) here?
A: inconclusive: 31.6 µM [quencher, side channel, single point]

Q: Which Potency does the source give for `N=c1c(C(=O)NCc2ccc(F)cc2)cc2c(=O)n3ccccc3nc2n1CCCN1CCOCC1` here?
A: inconclusive: 28.2 µM [quencher, side channel, partial curve]

Q: Which Potency does the source give for `Cn1c(N)c(C(=O)COC(=O)c2cc(-c3ccco3)nc3ccccc23)c(=O)n(C)c1=O` here?
A: inconclusive: 17.8 µM [quencher, side channel, partial curve]

Q: `Cc1cc(C(=O)N/N=C\c2cc(C(C)(C)C)ccc2O)n[nH]1` was tested. Which Potency did it give?
A: inactive

Q: How did the Potency turn out when `COc1ccc(-c2nn(-c3ccccc3)cc2/C=C/C(=O)O)cc1[N+](=O)[O-]` was run?
A: inconclusive: 14.1 µM [quencher, side channel, partial curve]

Q: `Cc1c(CCC(=O)NC2CC2)c(=O)oc2c(C)c(O)ccc12` was tested. Which Potency did it give?
A: inconclusive: 20 µM [quencher, side channel, single point]

Q: How did the Potency turn out when `COc1ccc(NC(=O)CCN2C(=O)C3C4CCC(C4)C3C2=O)cc1` (stereo not drawn) was run?
A: inconclusive: 0.126 µM [fluorescent, side channel, full curve, poor fit]

Q: With `O=[N+]([O-])c1cc(C=Nc2cccc3c(O)cccc23)ccc1Cl` as the compound, how does the Potency read?
A: inconclusive: 7.08 µM [quencher, side channel, partial curve]

Q: How did the Potency turn out when `CC(NC(=S)NCCN1CCOCC1)C12CC3CC(CC(C3)C1)C2` (stereo not drawn) was run?
A: inactive

Q: For `O=C(O)c1cc2c(=O)c3ccccc3oc2nc1C(F)(F)F`, which Potency is on record?
A: inconclusive: 22.4 µM [quencher, side channel, partial curve]

Q: `CC(=O)Nc1cccc(NC(=O)CSc2ccc(-c3cccnc3)nn2)c1` was tested. Which Potency did it give?
A: inactive

Q: With `CCOc1ccc(C(=O)OCC(=O)NCCCc2ccccc2)cc1` as the compound, how does the Potency read?
A: inactive

Q: For `CCCOc1ccc(C(=O)Nc2cccnc2)cc1`, which Potency is on record?
A: inactive

Q: How did the Potency turn out when `O=C(O)c1ccc(-n2cccc2/C=C2/NC(=O)N(c3ccccc3)C2=O)cc1` was run?
A: inconclusive: 25.1 µM [quencher, side channel, partial curve]

Q: Which Potency does the source give for `CCOn1c(=O)c(-c2ccc(OC)c(OC)c2)[n+]([O-])c2ccccc21` here?
A: inconclusive: 15.8 µM [quencher, side channel, partial curve]

Q: Which Potency does the source give for `O=C(Nc1ccc2nsnc2c1)c1cccs1` here?
A: inconclusive: 11.2 µM [quencher, side channel, partial curve]

Q: `COc1ccc(/C=C2\Sc3ccc(C(=O)N4CCOCC4)cc3N(C)C2=O)cc1` was tested. Which Potency did it give?
A: inconclusive: 22.4 µM [quencher, side channel, partial curve]

Q: Which Potency does the source give for `CC(C)N(Cc1ccccc1)C(=O)CN1C(=O)NC(Cc2ccccc2)(c2ccccc2)C1=O` (stereo not drawn) here?
A: inactive
